For assay [1], the target named is human Sirpα-V1 recombinant protein (human) (UniProt P78324). In words: ELISA. On the technique in general: In an ELISA, binding on a coated surface is turned into a signal by an enzyme label.
Assay [2] deals with human Sirpα-V1-his (human) (UniProt P78324). In words: blocking ELISA: Sirpα to CD47 (dimer).
The target of assay [3] is human Sirpα-V1-hFc (human) (UniProt P78324). In words: blocking ELISA: Sirpα (dimer) to CD47.

B1: LB501 (bispecific antibody)
light: DIQMTQSPSSLSASVGDRVTITCRASQDIRNYLNWYQQKPGKAPKLLIYFTSTLHSGVPSRFSGSGSGTDFTLTISSLQPEDFATYYCQQGNTLPWTFGGGTKVEIKGGGGSGGGGSGGGGSQVQLVQSGAEVKKPGASVKVSCKASGYNFNIYWINWVRQAPGQGLEWIGNIYPSSISTNYNEKFKTRATLTVDKSTSTVYMELSSLRSEDTAVYYCARSEGTYYGGRYEGDWFGYWGQGTLVTVSSGGGGSGGGGSGGGGSEIVLTQSPATLSLSPGERATLSCRASKGVSTSGYSYLHWYQQKPGQAPRLLIYLASYLESGVPARFSGSGSGTDFTLTISSLEPEDFAVYYCQHSRDLPLTFGGGTKVEIKRTVAAPSVFIFPPSDEQLKSGTASVVCLLNNFYPREAKVQWKVDNALQSGNSQESVTEQDSKDSTYSLSSTLTLSKADYEKHKVYACEVTHQGLSSPVTKSFNRGEC
heavy: QVQLVQSGVEVKKPGASVKVSCKASGYTFTNYYMYWVRQAPGQGLEWMGGINPSNGGTNFNEKFKNRVTLTTDSSTTTAYMELKSLQFDDTAVYYCARRDYRFDMGFDYWGQGTTVTVSSASTKGPSVFPLAPCSRSTSESTAALGCLVKDYFPEPVTVSWNSGALTSGVHTFPAVLQSSGLYSLSSVVTVPSSSLGTKTYTCNVDHKPSNTKVDKRV[letters of human IgG4 Fc with S228P (EU numbers) omitted]
Regarding B1, in assay [1], the half-maximal effective concentration (EC50) (usually the concentration giving half of the maximal effect) came to 0.059 nM and the multiple of change of EC50 (bispecific / corresponding monoclonal antibody) was 0.77. In assay [2], the IC50 (in general, the concentration at which inhibition is half-maximal) was 5.42 nM and the multiple of change of IC50 (bispecific / corresponding monoclonal antibody) was 0.88. Moreover, in assay [3], the IC50 stood at 2.55 nM and the multiple of change of IC50 (bispecific / corresponding monoclonal antibody) was determined as 0.66.

B2: LB503 (bispecific antibody)
light: EIVLTQSPATLSLSPGERATLSCRASKGVSTSGYSYLHWYQQKPGQAPRLLIYLASYLESGVPARFSGSGSGTDFTLTISSLEPEDFAVYYCQHSRDLPLTFGGGTKVEIKRTVAAPSVFIFPPSDEQLKSGTASVVCLLNNFYPREAKVQWKVDNALQSGNSQESVTEQDSKDSTYSLSSTLTLSKADYEKHKVYACEVTHQGLSSPVTKSFNRGECAGGGGSGGGGSGGGGSQVQLVQSGAEVKKPGASVKVSCKASGYNFNIYWINWVRQAPGQGLEWIGNIYPSSISTNYNEKFKTRATLTVDKSTSTVYMELSSLRSEDTAVYYCARSEGTYYGGRYEGDWFGYWGQGTLVTVSSGGGGSGGGGSGGGGSDIQMTQSPSSLSASVGDRVTITCRASQDIRNYLNWYQQKPGKAPKLLIYFTSTLHSGVPSRFSGSGSGTDFTLTISSLQPEDFATYYCQQGNTLPWTFGGGTKVEIK
heavy: QVQLVQSGVEVKKPGASVKVSCKASGYTFTNYYMYWVRQAPGQGLEWMGGINPSNGGTNFNEKFKNRVTLTTDSSTTTAYMELKSLQFDDTAVYYCARRDYRFDMGFDYWGQGTTVTVSSASTKGPSVFPLAPCSRSTSESTAALGCLVKDYFPEPVTVSWNSGALTSGVHTFPAVLQSSGLYSLSSVVTVPSSSLGTKTYTCNVDHKPSNTKVDKRV[letters of human IgG4 Fc with S228P (EU numbers) omitted]
Take B2: in assay [1], the 50% effective concentration (EC50) was 0.075 nM and the multiple of change of EC50 (bispecific / corresponding monoclonal antibody) was 0.97. In assay [2], this molecule gave a 50% inhibitory concentration (IC50) of 7.63 nM and a multiple of change of IC50 (bispecific / corresponding monoclonal antibody) of 1.24. Further, in assay [3], the IC50 was found to be 4.8 nM and the multiple of change of IC50 (bispecific / corresponding monoclonal antibody) was determined as 1.24.

B3: LB502 (bispecific antibody)
light: EIVLTQSPATLSLSPGERATLSCRASKGVSTSGYSYLHWYQQKPGQAPRLLIYLASYLESGVPARFSGSGSGTDFTLTISSLEPEDFAVYYCQHSRDLPLTFGGGTKVEIKRTVAAPSVFIFPPSDEQLKSGTASVVCLLNNFYPREAKVQWKVDNALQSGNSQESVTEQDSKDSTYSLSSTLTLSKADYEKHKVYACEVTHQGLSSPVTKSFNRGEC
heavy: DIQMTQSPSSLSASVGDRVTITCRASQDIRNYLNWYQQKPGKAPKLLIYFTSTLHSGVPSRFSGSGSGTDFTLTISSLQPEDFATYYCQQGNTLPWTFGGGTKVEIKGGGGSGGGGSGGGGSQVQLVQSGAEVKKPGASVKVSCKASGYNFNIYWINWVRQAPGQGLEWIGNIYPSSISTNYNEKFKTRATLTVDKSTSTVYMELSSLRSEDTAVYYCARSEGTYYGGRYEGDWFGYWGQGTLVTVSSGGGGSGGGGSGGGGSQVQLVQSGVEVKKPGASVKVSCKASGYTFTNYYMYWVRQAPGQGLEWMGGINPSNGGTNFNEKFKNRVTLTTDSSTTTAYMELKSLQFDDTAVYYCARRDYRFDMGFDYWGQGTTVTVSSASTKGPSVFPLAPCSRSTSESTAALGCLVKDYFPEPVTVSWNSGALTSGVHTFPAVLQSSGLYSLSSVVTVPSSSLGTKTYTCNVDHKPSNTKVDKRV[letters of human IgG4 Fc with S228P (EU numbers) omitted]
With B3, in assay [1], the EC50 is 0.066 nM and the multiple of change of EC50 (bispecific / corresponding monoclonal antibody) amounted to 0.86. Moreover, in assay [2], the IC50 came to 5.37 nM and the multiple of change of IC50 (bispecific / corresponding monoclonal antibody) amounted to 0.87. Besides, in assay [3], the IC50 was 3.78 nM and the multiple of change of IC50 (bispecific / corresponding monoclonal antibody) is 0.97.

B4: LB504 (bispecific antibody)
light: EIVLTQSPATLSLSPGERATLSCRASKGVSTSGYSYLHWYQQKPGQAPRLLIYLASYLESGVPARFSGSGSGTDFTLTISSLEPEDFAVYYCQHSRDLPLTFGGGTKVEIKRTVAAPSVFIFPPSDEQLKSGTASVVCLLNNFYPREAKVQWKVDNALQSGNSQESVTEQDSKDSTYSLSSTLTLSKADYEKHKVYACEVTHQGLSSPVTKSFNRGEC
heavy: QVQLVQSGVEVKKPGASVKVSCKASGYTFTNYYMYWVRQAPGQGLEWMGGINPSNGGTNFNEKFKNRVTLTTDSSTTTAYMELKSLQFDDTAVYYCARRDYRFDMGFDYWGQGTTVTVSSASTKGPSVFPLAPCSRSTSESTAALGCLVKDYFPEPVTVSWNSGALTSGVHTFPAVLQSSGLYSLSSVVTVPSSSLGTKTYTCNVDHKPSNTKVDKRV[letters of human IgG4 Fc with S228P (EU numbers) omitted]AGGGGSGGGGSGGGGSQVQLVQSGAEVKKPGASVKVSCKASGYNFNIYWINWVRQAPGQGLEWIGNIYPSSISTNYNEKFKTRATLTVDKSTSTVYMELSSLRSEDTAVYYCARSEGTYYGGRYEGDWFGYWGQGTLVTVSSGGGGSGGGGSGGGGSDIQMTQSPSSLSASVGDRVTITCRASQDIRNYLNWYQQKPGKAPKLLIYFTSTLHSGVPSRFSGSGSGTDFTLTISSLQPEDFATYYCQQGNTLPWTFGGGTKVEIK
Take B4: in assay [1], the EC50 is 0.055 nM and the multiple of change of EC50 (bispecific / corresponding monoclonal antibody) came to 0.71. In assay [2], this molecule yielded an IC50 of 6.63 nM and a multiple of change of IC50 (bispecific / corresponding monoclonal antibody) of 1.08. Further, in assay [3], the half-inhibitory concentration (IC50) came to 4.62 nM and the multiple of change of IC50 (bispecific / corresponding monoclonal antibody) was found to be 1.19.

(Values after patent publication US12577303B2.)
